The results in this text go back to paper doi:10.1101/2025.05.14.654016.

Chains of the proteins cited; added tags and fusions are not shown. Lines headed by an entry give the natural chain unless they say otherwise; changes in a name come on top.
UniProt O75365: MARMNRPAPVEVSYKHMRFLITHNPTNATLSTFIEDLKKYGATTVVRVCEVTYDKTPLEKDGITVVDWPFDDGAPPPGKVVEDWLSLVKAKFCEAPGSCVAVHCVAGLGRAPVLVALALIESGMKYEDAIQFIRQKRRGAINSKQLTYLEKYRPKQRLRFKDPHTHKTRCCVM

These are yes or no findings as the source states them, for the method shown. In cells and extracts the contact can be indirect. Some binding calls cover weakened binding; strength is not graded here.

What all share (test): co-IP; FLAG-tagged PRL-3 constructs transfected in HEK293T; lysates on anti-FLAG M2 magnetic beads overnight at 4 °C; immunoblot for endogenous CNNM3
In experiment [1] the target is FLAG-tagged PRL-3 A111S (human) (UniProt O75365).
The target of experiment [2] is FLAG-tagged PRL-3 A111S+R138E (human) (UniProt O75365).
Experiment [3] addresses FLAG-tagged PRL-3 C104E (human) (UniProt O75365).
The target in experiment [4] is FLAG-tagged PRL-3 C104D (human) (UniProt O75365).
Experiment [5] addresses FLAG-tagged PRL-3 wild type (Phosphatase of Regenerating Liver 3) (human) (UniProt O75365).
Experiment [6] addresses FLAG-tagged PRL-3 R138E (human) (UniProt O75365).

B1: endogenous CNNM3 (CNNM magnesium transporter) (protein, UniProt Q8NE01 1-707)
chain: MAAAVAAAGRLGWLFAALCLGNAAGEAAPGPRVLGFCLEEDGAAGAGWVRGGAARDTPDATFLLRLFGPGFANSSWSWVAPEGAGCREEAASPAGEWRALLRLRLRAEAVRPHSALLAVRVEPGGGAAEEAAPPWALGLGAAGLLALAALARGLQLSALALAPAEVQVLRESGSEAERAAARRLEPARRWAGCALGALLLLASLAQAALAVLLYRAAGQRAVPAVLGSAGLVFLVGEVVPAAVSGRWTLALAPRALGLSRLAVLLTLPVALPVGQLLELAARPGRLRERVLELARGGGDPYSDLSKGVLRCRTVEDVLTPLEDCFMLDASTVLDFGVLASIMQSGHTRIPVYEEERSNIVDMLYLKDLAFVDPEDCTPLSTITRFYNHPLHFVFNDTKLDAVLEEFKRGKSHLAIVQKVNNEGEGDPFYEVLGLVTLEDVIEEIIRSEILDESEDYRDTVVKRKPASLMAPLKRKEEFSLFKVSDDEYKVTISPQLLLATQRFLSREVDVFSPLRISEKVLLHLLKHPSVNQEVRFDESNRLATHHYLYQRSQPVDYFILILQGRVEVEIGKEGLKFENGAFTYYGVSALTVPSSVHQSPVSSLQPIRHDLQPDPGDGTHSSAYCPDYTVRALSDLQLIKVTRLQYLNALLATRAQNLPQSPENTDLQVIPGSQTRLLGEKTTTAAGSSHSRPGVPVEGSPGRNPGV
B1: the binding entry in experiment [1] is given as “binds”; in experiment [2], “no binding”; in experiment [3] it was “no binding”; in experiment [4], “binds”; in experiment [5], “binds”; in experiment [6], “no binding”.
